{"source": "PubChem BioAssay AID686971", "about": "(National Center for Advancing Translational Sciences (NCATS), 2013)", "note": "In all, about 360,000 compounds went through this assay and about 7,500 (2.1%) were called active. This list was built around the results that the source calls inconclusive (neither active nor inactive); the mix of calls is not that of the screen. Calls come from the whole dose curve; as a rule, active = well fitted cell-killing curve with a large enough effect; inconclusive = small, poorly fitted or top-dose-only effect, or effect the other way, or another doubt; inactive = no such curve, though single readings can be large or run the other way. Potencies of inconclusive entries are left out as doubtful fits. Potency is the fitted concentration of half-maximal effect; tags give direction and shape of the fitted curve.", "data": [{"assay": "qHTS for induction of synthetic lethality in tumor cells producing 2HG: qHTS for the HT-1080-IDH1KD cell line;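 for activity, negative = toxicity: 0% = DMSO wells and -100% = cell-free medium wells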", "settings": "HT-1080 IDH1 knockdown viability, ATP luminescence, 48 h; activity, negative = toxicity: at 46.1 µM (top of the series) unless noted", "how_it_was_run": "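% activity derives from luminescence (CellTiter-Glo), normalised to DMSO and no-cell wells. HT-1080-IDH1KD cells, 750/well, had 48 h compound exposure at 37 °C.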", "values": [{"smiles": "CCn1c(CSc2nc3ccccc3s2)nnc1SCC(=O)c1ccc(O)c(O)c1", "Potency": "inconclusive [cytotoxic, single point]"}, {"smiles": "O=C(NCc1cccc(C(F)(F)F)c1)C1CC(c2ccccc2C(F)(F)F)=NO1", "note": "(centres undefined)", "Potency": "active: 25.9 µM"}, {"smiles": "COc1ccc(N(CC(=O)N/N=C(\\C)c2ccc(OC)c(OC)c2)S(=O)(=O)c2ccccc2)cc1", "Potency": "inconclusive [cytotoxic, single point]"}, {"smiles": "Cc1cc(OCC(=O)NNC(=O)CCc2ccccc2)ccc1Br", "activity, negative = toxicity": "inactive: 5.53%"}, {"smiles": "Cc1cc(C)c2c(N)c(C(=O)Nc3ccccc3Cl)sc2n1", "Potency": "inconclusive [cytotoxic, single point]"}, {"smiles": "CC(=O)c1cc2c(cc1NC(=O)CSc1nc3ccccc3o1)OCO2", "Potency": "inconclusive [rising, single point]"}, {"smiles": "CC1=C(C(=O)N2CCOCC2)CC(CC(=O)NCC2CCCCC2)C(=O)N1Cc1ccc(C(C)(C)C)cc1", "note": "(centres undefined)", "Potency": "inconclusive [cytotoxic, single point]"}, {"smiles": "CCCCC1C2C(=O)N(c3ccc(C)cc3)C(=O)C2ON1c1ccccc1", "note": "(centres undefined)", "activity, negative = toxicity": "inactive: 21%"}, {"smiles": "CCOc1ccc(C2NC(=S)NC3=C2CCc2ccccc23)cc1", "note": "(centres undefined)", "Potency": "inconclusive [cytotoxic, single point]"}, {"smiles": "COc1ccc(OCC(=O)Nc2ccccc2Cl)cc1", "Potency": "inconclusive [rising, partial curve]"}, {"smiles": "O=C(N/N=C\\c1c(O)ccc2ccccc12)c1ccc(O)cc1", "Potency": "inconclusive [cytotoxic, partial curve]"}, {"smiles": "O=C(Cc1cccs1)Nc1ccccc1F", "activity, negative = toxicity": "inactive: -3.64%"}, {"smiles": "Cc1ccc2cc(CN(CCc3ccccc3)C(=S)NCCCN(C)C)c(=O)[nH]c2c1", "Potency": "inconclusive [cytotoxic, single point]"}, {"smiles": "Cn1ccc2c(-c3cccc4ccccc34)cc3c(c21)C1CCC3O1", "note": "(centres undefined)", "Potency": "inconclusive [cytotoxic, single point]"}, {"smiles": "CC1=C(C(=O)Nc2cccc(C(=O)N3CCN(c4cccc(C(F)(F)F)c4)CC3)c2)SCCO1", "Potency": "inconclusive [cytotoxic, single point]"}, {"smiles": "CCCCn1c(=N)n(CC(=O)C(C)(C)C)c2ccccc21", "Potency": "inconclusive [cytotoxic, single point]"}, {"smiles": "O=c1c(O)c(-c2ccc3c(c2)OCO3)oc2ccccc12", "Potency": "inconclusive [cytotoxic, single point]"}, {"smiles": "COc1cc([N+](=O)[O-])ccc1NC(=S)NNC(=O)c1ccc2c(c1)OCO2", "Potency": "inconclusive [cytotoxic, single point]"}, {"smiles": "COc1cc(C2C3=C(COC3=O)Oc3cc4c(cc32)OCO4)cc(OC)c1OC", "note": "(centres undefined)", "Potency": "inconclusive [cytotoxic, full curve]"}, {"smiles": "Cc1cc2c(cc1S(=O)(=O)Nc1cccc(F)c1C)NC(=O)CO2", "Potency": "inconclusive [cytotoxic, partial curve]"}, {"smiles": "O=C(Nc1nc(-c2ccccn2)cs1)c1ccc(F)c(S(=O)(=O)N2CCOCC2)c1", "Potency": "inconclusive [cytotoxic, full curve]"}, {"smiles": "CCCCOc1ccc(Cn2c(=O)oc3ccccc32)cc1", "activity, negative = toxicity": "inactive: -5.38%"}, {"smiles": "CCCCCCCn1c(=N)n(CC(=O)c2ccco2)c2ccccc21", "Potency": "inconclusive [cytotoxic, single point]"}, {"smiles": "CCN(CC)CCNc1nc(-n2nc(C)cc2C)nc2sc3c(c12)CC(C)(C)OC3", "Potency": "inconclusive [cytotoxic, single point]"}, {"smiles": "c1ccc(-c2noc(-c3ccncc3)n2)nc1", "Potency": "inconclusive [cytotoxic, single point]"}, {"smiles": "O=C(c1[nH]nc2c1CCc1ccccc1-2)N1CCN(Cc2ccc3c(c2)OCO3)CC1", "Potency": "inconclusive [cytotoxic, partial curve]"}, {"smiles": "CC(C)(C)c1ccc(/C=N/OCC(=O)NCc2ccc(F)cc2)cc1", "Potency": "inconclusive [cytotoxic, single point]"}, {"smiles": "COC(=O)c1sc2cc([N+](=O)[O-])cc(SCC(C)C)c2c1N", "activity, negative = toxicity": "inactive: 8.56%"}, {"smiles": "Cc1ccc(/C=N/NC(=O)NN(C)c2ncc(C(F)(F)F)cc2Cl)cc1", "Potency": "inconclusive [cytotoxic, single point]"}, {"smiles": "Cc1cccc(N2CCN(C(=O)c3cn(C)c(=O)c4c3c3ccccc3n4C)CC2)c1C", "Potency": "active: 17.8 µM"}, {"smiles": "CC(C)OC(=O)C(C(=O)C(F)(F)F)c1cc(NS(=O)(=O)c2ccc3ccccc3c2)c2ccccc2c1O", "note": "(centres undefined)", "Potency": "active: 11.6 µM"}, {"smiles": "COc1ccc(C(=O)CC(=O)c2ccccc2O)cc1", "Potency": "inconclusive [cytotoxic, single point]"}, {"smiles": "O=C(Nc1ccc2c(c1)OCCO2)c1coc2ccccc2c1=O", "Potency": "inconclusive [cytotoxic, single point]"}, {"smiles": "COc1cccc(C(=O)Oc2cc3c4c(c2)C(C)=CC(C)(C)N4C(=O)C3=O)c1", "Potency": "active: 4.47 µM"}, {"smiles": "CC1(C(=O)NS(=O)(=O)c2cccc(C#N)c2)CCN1C(=O)CCC1CCCC1", "note": "(centres undefined)", "activity, negative = toxicity": "inactive: 10.2%"}, {"smiles": "COc1ccc(NC(=O)COC(=O)CCC2CCCCC2)cc1", "activity, negative = toxicity": "inactive: 1.88%"}, {"smiles": "O=C(Nc1ccc(Br)cn1)c1ccc(Br)s1", "activity, negative = toxicity": "inconclusive: -1.61% [cytotoxic]"}, {"smiles": "C[C@H]1Cn2cnc(C(=O)Nc3ccc(CNC(=O)OC(C)(C)C)cc3)c2C(=O)N1", "activity, negative = toxicity": "inactive: 1.83%"}, {"smiles": "CCOc1ccc(C(=O)C(CCC(CN(C)C)C(=O)c2ccc(OCC)cc2)CN(C)C)cc1", "note": "(centres undefined)", "Potency": "active: 5.8 µM"}, {"smiles": "Cc1ccc(OCCN2CCC2(C)C(=O)NCc2ccc(C(F)(F)F)cc2)cc1", "note": "(centres undefined)", "Potency": "inconclusive [cytotoxic, single point]"}, {"smiles": "Cc1ccc(NS(=O)(=O)c2ccc(NC(=O)C(C)Sc3ccc(Cl)cc3)cc2)c(C)c1", "note": "(centres undefined)", "Potency": "inconclusive [cytotoxic, single point]"}, {"smiles": "COC(=O)c1cc(-c2ccccc2)n(CC(=O)O)c1C", "activity, negative = toxicity": "inactive: 13.4%"}, {"smiles": "CCCCOCCCNC(=O)C[C@@H]1C[C@@]2(C(=O)OC)CCCCC=C2N(CCC2=CCCCC2)C1=O", "Potency": "inconclusive [cytotoxic, single point]"}, {"smiles": "CCc1c(C)nc2c(-c3ccccc3)c[nH]n2c1=O", "Potency": "inconclusive [cytotoxic, partial curve]"}]}]}
